This note sets out measurements from a collection of fitness landscapes (doi:10.1126/science.1257360).

The list shows a part of the results.

B1: PhoQ; a variant is named by its letters at X, in order, P23837 (parent)
chain: MKKLLRLFFPLSLRVRFLLATAAVVLVLSLAYGMVALIGYSVSFDKTTFRLLRGESNLFYTLAKWENNKLHVELPENIDKQSPTMTLIYDENGQLLWAQRDVPWLMKMIQPDWLKSNGFHEIEADVNDTSLLLSGDHSIQQQLQEVREDDDDAEMTHSVAVNVYPATSRMPKLTIVVVDTIPVELKSSYMVWSWFIYVLSANLLLVIPLLWVAAWWSLRPIEALAKEVRELEEHNRELLNPATTRELTSLVRNLNRLLKSERERYDKYRTTLTDLTHSLKTPLXXLQXXLRSLRSEKMSVSDAEPVMLEQISRISQQIGYYLHRASMRGGTLLSRELHPVAPLLDNLTSALNKVYQRKGVNISLDISPEISFVGEQNDFVEVMGNVLDNACKYCLEFVEISARQTDEHLYIVVEDDGPGIPLSKREVIFDRGQRVDTLRPGQGVGLAVAREITEQYEGKIVAGESMLGGARMEVIFGRQHSAPKDE

The variants in the assay derive from B1. As to the kind of experiment: enrichment ratio after two sorts for PhoP signalling (ratio (wild type AVST 3.29)); higher = more functional. Conditions: with PhoP (E. coli).
As to PQRR, the enrichment ratio is not above 0.25.

MPHF: the enrichment ratio was not above 0.25.

Regarding SVCC, the enrichment ratio came out at 16.1.

As to GHTV, the enrichment ratio was not above 0.25.

Consider EFPQ, for which the enrichment ratio was not above 0.25.

Regarding SCMA, the enrichment ratio amounted to 15.7.

With STHV, the enrichment ratio is not above 0.25.

Turning to SYIQ, the enrichment ratio was not above 0.25.

In the case of EQSV, the enrichment ratio is not above 0.25.

For PNNM, the enrichment ratio is not above 0.25.

With WMWL, the enrichment ratio is not above 0.25.

Take LIKE: the enrichment ratio was not above 0.25.

For MIPS, the enrichment ratio was not above 0.25.

LHYF: the enrichment ratio is not above 0.25.

FNGA: the enrichment ratio was not above 0.25.

Regarding DINY, the enrichment ratio was not above 0.25.

Turning to LNWE, the enrichment ratio was not above 0.25.

RYII: the enrichment ratio is not above 0.25.

With AWGQ, the enrichment ratio was not above 0.25.

TFWD: the enrichment ratio is not above 0.25.

As for DSPF, the enrichment ratio is not above 0.25.

With KLLT, the enrichment ratio was not above 0.25.

For the variant SVDY, the enrichment ratio is not above 0.25.

Regarding PWCP, the enrichment ratio is not above 0.25.

DYIG: the enrichment ratio was not above 0.25.

On to YLLP, for which the enrichment ratio was not above 0.25.

Regarding EVSQ, the enrichment ratio was not above 0.25.

For the variant FQPV, the enrichment ratio was not above 0.25.

As for IDKF, the enrichment ratio is not above 0.25.

Regarding VNVI, the enrichment ratio amounted to 1.09.

As for PFAC, the enrichment ratio was not above 0.25.

RRVG: the enrichment ratio is not above 0.25.

Consider DYCM, for which the enrichment ratio is not above 0.25.

Take DQIG: the enrichment ratio is not above 0.25.

Turning to VIGG, the enrichment ratio is not above 0.25.

REAK: the enrichment ratio was not above 0.25.

KNPA: the enrichment ratio was not above 0.25.

Consider MMVL, for which the enrichment ratio is 0.436.

As for KKVY, the enrichment ratio is not above 0.25.

Consider YSTH, for which the enrichment ratio was not above 0.25.

With WYVA, the enrichment ratio was not above 0.25.

Take WEGQ: the enrichment ratio was not above 0.25.

On to VCCN, for which the enrichment ratio is not above 0.25.

As for GRFE, the enrichment ratio was not above 0.25.

For KMMI, the enrichment ratio was not above 0.25.

In the case of REYD, the enrichment ratio is not above 0.25.

In the case of HMYS, the enrichment ratio is not above 0.25.

Turning to MKNA, the enrichment ratio was not above 0.25.

As to TTKA, the enrichment ratio is not above 0.25.

Consider FDAR, for which the enrichment ratio was not above 0.25.

FYGF: the enrichment ratio was not above 0.25.

On to VSDL, for which the enrichment ratio is not above 0.25.

With REDV, the enrichment ratio was not above 0.25.

Regarding CSAT, the enrichment ratio is not above 0.25.

As for KEIN, the enrichment ratio is not above 0.25.

With YKRC, the enrichment ratio was not above 0.25.

With LATD, the enrichment ratio is not above 0.25.

PAKD: the enrichment ratio was not above 0.25.

For EYAW, the enrichment ratio is not above 0.25.

RSDQ: the enrichment ratio is not above 0.25.

In the case of GASL, the enrichment ratio was 3.66.

AKNK: the enrichment ratio was not above 0.25.

Take YSMN: the enrichment ratio is not above 0.25.

Consider NDVW, for which the enrichment ratio was not above 0.25.

Regarding TSHW, the enrichment ratio is not above 0.25.

As to KARK, the enrichment ratio was not above 0.25.

As to WYYR, the enrichment ratio is not above 0.25.

As for KDIR, the enrichment ratio is not above 0.25.

With DIPM, the enrichment ratio was 2.64.

As for NFTN, the enrichment ratio is not above 0.25.

QVPY: the enrichment ratio was not above 0.25.

Take SRVQ: the enrichment ratio was not above 0.25.

For ELTK, the enrichment ratio was not above 0.25.

For FHVL, the enrichment ratio was not above 0.25.

As for EGDC, the enrichment ratio is not above 0.25.

Regarding MCNL, the enrichment ratio is not above 0.25.

In the case of EPKN, the enrichment ratio was not above 0.25.

With EDSA, the enrichment ratio is not above 0.25.

With SWQV, the enrichment ratio was not above 0.25.

LSTN: the enrichment ratio was not above 0.25.

Take KTWQ: the enrichment ratio was not above 0.25.

With NSLF, the enrichment ratio is not above 0.25.

Turning to NSNA, the enrichment ratio was not above 0.25.

Consider SHIH, for which the enrichment ratio is not above 0.25.

Take MCSV: the enrichment ratio is not above 0.25.

With FDYI, the enrichment ratio is not above 0.25.

Turning to VFQS, the enrichment ratio was not above 0.25.

As for QNSP, the enrichment ratio was not above 0.25.

As to VNMN, the enrichment ratio is not above 0.25.

Turning to RGIS, the enrichment ratio is not above 0.25.

RCMT: the enrichment ratio was not above 0.25.

For the variant NMHR, the enrichment ratio is not above 0.25.

IVIV: the enrichment ratio is not above 0.25.

As to TVTH, the enrichment ratio came out at 4.6.

On to QGHW, for which the enrichment ratio is not above 0.25.

In the case of RWGT, the enrichment ratio is not above 0.25.

As for PGSR, the enrichment ratio was not above 0.25.

On to FDPM, for which the enrichment ratio is not above 0.25.

LYSW: the enrichment ratio is not above 0.25.

For the variant VIRK, the enrichment ratio was not above 0.25.

EGMN: the enrichment ratio is not above 0.25.

As for KHFC, the enrichment ratio is not above 0.25.

With IPAF, the enrichment ratio was not above 0.25.

With HMRK, the enrichment ratio is not above 0.25.

As for TASG, the enrichment ratio was 9.06.

Consider VEKN, for which the enrichment ratio is not above 0.25.

As to DFCW, the enrichment ratio was not above 0.25.

NWAM: the enrichment ratio is not above 0.25.

On to ATWV, for which the enrichment ratio was not above 0.25.

For the variant YEKA, the enrichment ratio was not above 0.25.

Consider QYDP, for which the enrichment ratio is not above 0.25.

As for MRDK, the enrichment ratio is not above 0.25.

Regarding MAMN, the enrichment ratio was not above 0.25.

Take MIAA: the enrichment ratio came out at 11.7.

As to NGCW, the enrichment ratio was not above 0.25.

With VMIL, the enrichment ratio is not above 0.25.

Regarding QKSK, the enrichment ratio was not above 0.25.

Consider IPRV, for which the enrichment ratio is not above 0.25.

For the variant KFIC, the enrichment ratio is not above 0.25.

Consider QFLN, for which the enrichment ratio was not above 0.25.

As for PENL, the enrichment ratio is not above 0.25.

Regarding QMWL, the enrichment ratio is not above 0.25.

In the case of ERDF, the enrichment ratio was not above 0.25.

On to SNYG, for which the enrichment ratio was not above 0.25.

With GPQA, the enrichment ratio was not above 0.25.

Consider IYQF, for which the enrichment ratio is not above 0.25.

With GWEH, the enrichment ratio was not above 0.25.

On to RCFI, for which the enrichment ratio was not above 0.25.

Consider HGIW, for which the enrichment ratio is not above 0.25.

With KHRA, the enrichment ratio is not above 0.25.

With VAYW, the enrichment ratio was not above 0.25.

NRES: the enrichment ratio was not above 0.25.

Regarding DCPE, the enrichment ratio was not above 0.25.

Consider LNLF, for which the enrichment ratio was not above 0.25.

For the variant QGMA, the enrichment ratio is not above 0.25.

As for QHDN, the enrichment ratio was not above 0.25.

Consider MGPR, for which the enrichment ratio is not above 0.25.

As for QHYV, the enrichment ratio is not above 0.25.

Consider MSRI, for which the enrichment ratio is not above 0.25.

In the case of HMML, the enrichment ratio is 3.47.

Turning to FYCL, the enrichment ratio is not above 0.25.

As for ETQG, the enrichment ratio was not above 0.25.

GGRV: the enrichment ratio is not above 0.25.

For LTFD, the enrichment ratio was not above 0.25.

Turning to KSHQ, the enrichment ratio is not above 0.25.

As for WVGR, the enrichment ratio is not above 0.25.

With MHVG, the enrichment ratio was not above 0.25.

Take DYEP: the enrichment ratio was not above 0.25.

As for QIQF, the enrichment ratio was not above 0.25.

For YNID, the enrichment ratio is not above 0.25.

Regarding YGLL, the enrichment ratio was 8.88.

As for LGKM, the enrichment ratio is not above 0.25.

As for YWQA, the enrichment ratio is not above 0.25.
